The list shows a part of the results.
Key:
Assay in all cases: glycan array binding signal (z-score within array); higher = stronger binding
Conditions in all cases: glycan notation: IUPAC condensed, linker removed
[1] = target: GalNAc(b1-3)Gal(a1-4)Gal(b1-4)GlcNAc
Method in brief: (§1)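 The binding signal is a Z-score computed within each array. Data were drawn from 3228 arrays in the Consortium for Functional Glycomics database, restricted to those with a known protein sequence. Scores were averaged over arrays of the same protein sequence at different concentrations or buffers, and over linkers, and negative values can be taken as non-binding.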

[2] = target: GalNAc(b1-3)Gal(a1-4)Gal(b1-4)GlcNAc(b1-3)Gal(b1-4)Glc
Method in brief: as §1

[3] = target: GalNAc(b1-3)Gal(a1-6)Gal(b1-4)Glc
Method in brief: as §1

GalNAc(b1-3)GalNAc = target: GalNAc(b1-3)GalNAc
Method in brief: as §1

GalNAc(b1-4)GlcNAc = target: GalNAc(b1-4)GlcNAc
Method in brief: as §1

[4] = target: GalNAc(b1-4)GlcNAc(b1-2)Man(a1-3)[GalNAc(b1-4)GlcNAc(b1-2)Man(a1-6)]Man(b1-4)GlcNAc(b1-4)GlcNAc
Method in brief: as §1

Glc(a1-4)Glc = target: Glc(a1-4)Glc
Method in brief: as §1

Glc(a1-6)Glc(a1-6)Glc = target: Glc(a1-6)Glc(a1-6)Glc
Method in brief: as §1

Glc(b1-4)Glc = target: Glc(b1-4)Glc
Method in brief: as §1

Glc(b1-6)Glc = target: Glc(b1-6)Glc
Method in brief: as §1

GlcA(b1-3)Gal = target: GlcA(b1-3)Gal
Method in brief: as §1

GlcA(b1-3)GlcNAc = target: GlcA(b1-3)GlcNAc
Method in brief: as §1

GlcA(b1-6)Gal = target: GlcA(b1-6)Gal
Method in brief: as §1

[5] = target: GlcNAc(a1-3)Gal(b1-4)GlcNAc
Method in brief: as §1

[6] = target: GlcNAc(a1-4)Gal(b1-3)GlcNAc
Method in brief: as §1

[7] = target: GlcNAc(a1-4)Gal(b1-4)GalNAc
Method in brief: as §1

[8] = target: GlcNAc(a1-4)Gal(b1-4)GlcNAc
Method in brief: as §1

[9] = target: GlcNAc(a1-4)Gal(b1-4)GlcNAc(b1-3)Gal(b1-4)Glc
Method in brief: as §1

[10] = target: GlcNAc(a1-4)Gal(b1-4)GlcNAc(b1-3)Gal(b1-4)GlcNAc
Method in brief: as §1

[11] = target: GlcNAc(a1-4)Gal(b1-4)GlcNAc(b1-3)Gal(b1-4)GlcNAc(b1-3)Gal(b1-4)GlcNAc
Method in brief: as §1

[12] = target: GlcNAc(a1-4)Gal(b1-4)GlcNAc(b1-3)Gal(b1-4)[Fuc(a1-3)]GlcNAc(b1-3)Gal(b1-4)[Fuc(a1-3)]GlcNAc
Method in brief: as §1

[13] = target: GlcNAc(a1-6)Gal(b1-4)GlcNAc
Method in brief: as §1

[14] = target: GlcNAc(b1-2)Gal(b1-3)GalNAc
Method in brief: as §1

[15] = target: GlcNAc(b1-2)Man(a1-3)[GlcNAc(b1-2)Man(a1-6)]Man(b1-4)GlcNAc(b1-4)GlcNAc
Method in brief: as §1

[16] = target: GlcNAc(b1-2)Man(a1-3)[GlcNAc(b1-2)Man(a1-6)]Man(b1-4)GlcNAc(b1-4)[Fuc(a1-6)]GlcNAc
Method in brief: as §1

[17] = target: GlcNAc(b1-2)[GlcNAc(b1-4)]Man(a1-3)[GlcNAc(b1-2)Man(a1-6)]Man(b1-4)GlcNAc(b1-4)GlcNAc
Method in brief: as §1

GlcNAc(b1-3)Gal = target: GlcNAc(b1-3)Gal
Method in brief: as §1

[18] = target: GlcNAc(b1-3)Gal(b1-3)GalNAc
Method in brief: as §1

GlcNAc(b1-3)Gal(b1-4)Glc = target: GlcNAc(b1-3)Gal(b1-4)Glc
Method in brief: as §1

[19] = target: GlcNAc(b1-3)Gal(b1-4)GlcNAc
Method in brief: as §1

[20] = target: GlcNAc(b1-3)Gal(b1-4)GlcNAc(b1-3)Gal(b1-4)GlcNAc
Method in brief: as §1

GlcNAc(b1-3)GalNAc = target: GlcNAc(b1-3)GalNAc
Method in brief: as §1

GlcNAc(b1-3)Man = target: GlcNAc(b1-3)Man
Method in brief: as §1

[21] = target: GlcNAc(b1-3)[GlcNAc(b1-4)][GlcNAc(b1-6)]GlcNAc
Method in brief: as §1

[22] = target: GlcNAc(b1-3)[GlcNAc(b1-6)]Gal(b1-4)GlcNAc
Method in brief: as §1

[23] = target: GlcNAc(b1-3)[GlcNAc(b1-6)]GalNAc
Method in brief: as §1

[24] = target: GlcNAc(b1-4)Gal(b1-4)GlcNAc
Method in brief: as §1

B1: exo-alpha-sialidase (Propionibacterium acnes), Q6A7G1 (protein)
chain: GSHMSGRAPAPVAATTQPKLVTGDITSTDQSGTNLFFGKKIVRNARGAIMKVDRTWPAAVPAPLPDVRADSSTRMLLGPVVDLAVNEHPEGVFYRIPALATASNGDLLASYDLRPGSAGDAPNPNSIVQRRSRDNGRTWGPQTVIHAGTPGRRKVGYSDPSYLVDPATGRILNFHVKSYDRGFATSEVGTDPDDRHVLHAEVSTSTDNGHTWTHRDITREITSDPTTRTRFVASGQGIALLHGPHAGRLIAQMTVRNSVGQQAQSIYSDDHGITWHAGNPVGRMMDENKVVELSDGTLMLNSRDAARSGRRKVAYSQDGGLTWGPVKLVDDLIDPTNNAQIIRAYPNARAGSAKARILLFTNARNATERVNGTLSVSCDDGRTWVSHQTYMPGEVGYTTAAVQSDGALGVLWERDGIRYSTIPMGWLNSVCPLAPSGRPTSGKPTSGTSLPPTAT
[1]
  glycan array binding signal (z-score): -0.354
[2]
  glycan array binding signal (z-score): -0.36
[3]
  glycan array binding signal (z-score): -0.367
GalNAc(b1-3)GalNAc
  glycan array binding signal (z-score): -0.351
GalNAc(b1-4)GlcNAc
  glycan array binding signal (z-score): -0.325
[4]
  glycan array binding signal (z-score): -0.368
Glc(a1-4)Glc
  glycan array binding signal (z-score): -0.331
Glc(a1-6)Glc(a1-6)Glc
  glycan array binding signal (z-score): -0.324
Glc(b1-4)Glc
  glycan array binding signal (z-score): -0.354
Glc(b1-6)Glc
  glycan array binding signal (z-score): -0.318
GlcA(b1-3)Gal
  glycan array binding signal (z-score): -0.304
GlcA(b1-3)GlcNAc
  glycan array binding signal (z-score): -0.335
GlcA(b1-6)Gal
  glycan array binding signal (z-score): -0.343
[5]
  glycan array binding signal (z-score): -0.369
[6]
  glycan array binding signal (z-score): -0.32
[7]
  glycan array binding signal (z-score): -0.202
[8]
  glycan array binding signal (z-score): -0.264
[9]
  glycan array binding signal (z-score): -0.373
[10]
  glycan array binding signal (z-score): -0.342
[11]
  glycan array binding signal (z-score): -0.346
[12]
  glycan array binding signal (z-score): -0.257
[13]
  glycan array binding signal (z-score): -0.377
[14]
  glycan array binding signal (z-score): -0.326
[15]
  glycan array binding signal (z-score): -0.369
[16]
  glycan array binding signal (z-score): -0.33
[17]
  glycan array binding signal (z-score): -0.373
GlcNAc(b1-3)Gal
  glycan array binding signal (z-score): -0.363
[18]
  glycan array binding signal (z-score): -0.279
GlcNAc(b1-3)Gal(b1-4)Glc
  glycan array binding signal (z-score): -0.353
[19]
  glycan array binding signal (z-score): -0.344
[20]
  glycan array binding signal (z-score): -0.356
GlcNAc(b1-3)GalNAc
  glycan array binding signal (z-score): -0.358
GlcNAc(b1-3)Man
  glycan array binding signal (z-score): -0.338
[21]
  glycan array binding signal (z-score): -0.355
[22]
  glycan array binding signal (z-score): -0.367
[23]
  glycan array binding signal (z-score): -0.368
[24]
  glycan array binding signal (z-score): -0.362
